Assay results published in the supplement of paper PMC6531468.
The list shows a part of the results. Values come from read counts of a selection and are noisy. Scores sum up all selected molecules that hold the word; the word was not tested alone.

What was measured:
Assay in all cases: 6-mer SELEX enrichment z-score vs GST control; IMP3 is the RNA-binding protein IGF2BP3; higher = more enriched by binding
[1] = system: IMP3 KH1-4; conditions: construct: KH1-4 (164-579); SELEX round: R4
Protocol: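 SELEX-seq with GST-tagged IMP3 KH1-4 (Pro164-Lys579) and an N40 RNA pool, round 4. 6-mer z-score of sequence-tag enrichment normalised to the corresponding GST SELEX round; RNA k-mers written as DNA (T for U).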

[2] = system: IMP3 RRM1-2; conditions: construct: RRM1-2 (1-163); SELEX round: R2
Chain of IMP3 RRM1-2 (chain, as listed by the source): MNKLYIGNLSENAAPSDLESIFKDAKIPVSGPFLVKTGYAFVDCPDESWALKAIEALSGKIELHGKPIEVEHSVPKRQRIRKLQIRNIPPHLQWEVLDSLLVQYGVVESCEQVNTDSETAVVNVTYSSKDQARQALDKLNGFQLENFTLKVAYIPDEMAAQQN
Protocol: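 SELEX-seq with GST-tagged IMP3 RRM1-2 (Met1-Asn163) and an N40 RNA pool, round 2. 6-mer enrichment z-score normalised to GST SELEX. RNA written as DNA (T = U).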

[3] = target: IMP3 full-length (UniProt O00425); conditions: construct: FL IMP3 (1-579); SELEX round: R4
Chain of UniProt O00425 (O00425 whole entry): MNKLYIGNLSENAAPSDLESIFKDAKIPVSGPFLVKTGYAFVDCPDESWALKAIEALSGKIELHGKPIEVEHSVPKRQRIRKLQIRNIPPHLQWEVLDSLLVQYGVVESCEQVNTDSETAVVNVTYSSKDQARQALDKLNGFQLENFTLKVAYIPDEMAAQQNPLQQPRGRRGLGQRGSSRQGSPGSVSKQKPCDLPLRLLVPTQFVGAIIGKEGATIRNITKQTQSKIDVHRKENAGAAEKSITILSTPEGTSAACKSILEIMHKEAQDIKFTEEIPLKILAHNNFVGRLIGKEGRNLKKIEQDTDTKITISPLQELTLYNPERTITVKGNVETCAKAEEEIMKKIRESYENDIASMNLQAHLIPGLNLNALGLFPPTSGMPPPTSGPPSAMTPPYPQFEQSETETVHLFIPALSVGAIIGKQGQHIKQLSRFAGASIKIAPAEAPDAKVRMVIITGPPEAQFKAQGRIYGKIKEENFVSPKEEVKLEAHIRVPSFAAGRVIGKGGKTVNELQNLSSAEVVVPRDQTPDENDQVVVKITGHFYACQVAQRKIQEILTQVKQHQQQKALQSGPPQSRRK
Protocol: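 SELEX-seq with GST-tagged full-length IMP3 and an N40 RNA pool, round 4. Each 6-mer is scored as an enrichment z-score of sequence tags containing it, normalised to the matching GST SELEX round. RNA written as DNA (T = U).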

[4] = system: IMP3 KH1-2; conditions: construct: KH1-2 (164-376); SELEX round: R4
Chain of IMP3 KH1-2 (chain, as listed by the source): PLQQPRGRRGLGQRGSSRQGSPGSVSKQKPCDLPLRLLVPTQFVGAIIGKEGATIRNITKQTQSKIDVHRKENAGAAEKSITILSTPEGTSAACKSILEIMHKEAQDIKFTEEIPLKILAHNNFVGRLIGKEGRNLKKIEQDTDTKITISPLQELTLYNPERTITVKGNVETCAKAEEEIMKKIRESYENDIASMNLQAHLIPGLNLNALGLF
Protocol: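 SELEX-seq with GST-tagged IMP3 KH1-2 (Pro164-Phe376) and an N40 RNA pool, round 4 (stringent 300/600 mM KCl washes). 6-mer z-score of sequence-tag enrichment normalised to the corresponding GST SELEX round; RNA k-mers written as DNA (T for U).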

[5] = system: IMP3 KH3-4; conditions: construct: KH3-4 (377-579); SELEX round: R4
Chain of IMP3 KH3-4 (chain, as listed by the source): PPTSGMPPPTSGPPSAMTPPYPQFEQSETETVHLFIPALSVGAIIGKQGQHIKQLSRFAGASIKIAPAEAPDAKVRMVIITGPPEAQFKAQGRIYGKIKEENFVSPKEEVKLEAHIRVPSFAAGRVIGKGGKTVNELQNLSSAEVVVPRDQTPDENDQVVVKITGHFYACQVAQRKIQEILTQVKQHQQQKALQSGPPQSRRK
Protocol: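 SELEX-seq with GST-tagged IMP3 KH3-4 (Pro377-Lys579) and an N40 RNA pool, round 4. 6-mer z-score of sequence-tag enrichment normalised to the corresponding GST SELEX round; RNA k-mers written as DNA (T for U).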

Chain of IMP3 KH1-4 (chain, as listed by the source): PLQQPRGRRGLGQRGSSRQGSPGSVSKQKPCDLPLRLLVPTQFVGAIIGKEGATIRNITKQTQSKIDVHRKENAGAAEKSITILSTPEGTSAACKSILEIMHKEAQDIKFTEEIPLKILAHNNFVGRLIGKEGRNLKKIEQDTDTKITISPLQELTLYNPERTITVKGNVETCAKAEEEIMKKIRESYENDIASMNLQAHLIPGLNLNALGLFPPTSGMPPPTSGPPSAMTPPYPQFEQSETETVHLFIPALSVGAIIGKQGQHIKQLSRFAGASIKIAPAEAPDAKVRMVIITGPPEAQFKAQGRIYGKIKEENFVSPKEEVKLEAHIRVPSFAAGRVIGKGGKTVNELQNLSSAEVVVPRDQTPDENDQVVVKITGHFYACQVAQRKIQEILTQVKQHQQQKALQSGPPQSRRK

Sequence	6-mer SELEX enrichment z-score [1]	6-mer SELEX enrichment z-score [2]	6-mer SELEX enrichment z-score [3]	6-mer SELEX enrichment z-score [4]	6-mer SELEX enrichment z-score [5]
CATCGG	0.356	0.699	1.52	0.094	-0.033
GTTGTC	-0.246	0.347	-0.015	-0.214	-0.151
GGCAGC	0.792	0.599	1.86	0.68	0.408
ATAGTT	0.273	0.364	0.122	0.168	0.419
GTGGTG	0.059	0.373	-0.008	0.104	0.142
CTTCAA	0.11	0.682	0.224	0.241	-0.096
TAATCG	-0.095	-0.187	-0.287	-0.237	-0.042
GCCGCA	0.786	0.333	1.27	0.904	0.263
GGCTCC	0.123	0.307	0.704	0.064	-0.118
CCAAAG	-1.89	-1.43	-1.72	-1.85	-1.94
TCACTT	0.982	1.15	0.801	1.06	0.74
CGGTTT	-0.085	0.338	-0.105	-0.129	0.107
CAGCTG	-0.046	0.242	0.39	-0.003	-0.231
GCAACT	-0.116	0.051	0.245	-0.125	-0.332
TCGGGG	0.058	0.268	0.377	0.28	0.276
CAAGCT	-0.471	0.051	-0.077	-0.42	-0.456
ACCAAG	-1.31	-0.318	-1.21	-1.38	-1.5
GATTCA	0.943	0.527	0.845	0.836	0.799
AGCTGC	0.093	0.026	0.115	0.065	-0.088
GCGGAG	-0.445	-0.302	0.107	-0.201	-0.209
GCAGTC	1.11	0.447	1.15	0.756	0.518
GGGTGT	-0.31	0.398	0.049	-0.115	-0.043
ATGATC	0.941	-0.033	0.202	0.556	0.815
TTGACT	-0.152	-0.162	-0.52	-0.175	-0.077
AACTAG	-0.03	-0.598	-0.597	-0.199	0.167
CCCTGA	-1.18	-0.985	-1.48	-1.19	-1.59
GGGTTT	0.064	0.432	0.187	0.196	0.397
